Among all 230,000 compounds or so, about 3,600 (1.6%) were called active. This list was built around the results that the source calls inconclusive (neither active nor inactive); the mix of calls is not that of the screen. The call rests on the fitted dose curve; in most records, active means well fitted inhibition curve with a large enough effect (not every such curve was filed as active); inconclusive means small, poorly fitted or top-dose-only effect, or another doubt; inactive means no such curve, though single readings can be large or run the other way. A potency beside an inconclusive call is a rough fit, not a confirmed value.
Target: Lysine-specific demethylase 4E (Homo sapiens) (UniProt B2RXH2)
UniProt B2RXH2, sequence (B2RXH2 whole entry, looked up, the tested form may be a part): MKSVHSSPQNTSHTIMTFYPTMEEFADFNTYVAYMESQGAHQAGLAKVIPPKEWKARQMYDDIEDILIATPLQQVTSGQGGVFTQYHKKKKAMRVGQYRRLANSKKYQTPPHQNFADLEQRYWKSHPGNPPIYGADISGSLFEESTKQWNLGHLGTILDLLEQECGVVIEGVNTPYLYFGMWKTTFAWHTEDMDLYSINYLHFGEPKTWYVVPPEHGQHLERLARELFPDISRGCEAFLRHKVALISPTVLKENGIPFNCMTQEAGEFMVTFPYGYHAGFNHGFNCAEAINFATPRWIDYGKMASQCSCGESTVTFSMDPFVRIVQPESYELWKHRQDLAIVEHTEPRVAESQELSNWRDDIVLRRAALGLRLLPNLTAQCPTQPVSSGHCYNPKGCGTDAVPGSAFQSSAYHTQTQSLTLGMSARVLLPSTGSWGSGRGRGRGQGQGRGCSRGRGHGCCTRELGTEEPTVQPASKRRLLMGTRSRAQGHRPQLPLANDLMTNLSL
Experiment: qHTS Assay for Inhibitors of Human Jumonji Domain Containing 2E (JMJD2E)
Conditions: JMJD2E catalytic domain, FDH-coupled NADH fluorescence (FDH is formaldehyde dehydrogenase); series mostly up to 57.1 µM; activity change, negative = inhibition: at the top concentration
Further: nearly all actives have a fitted effect of over 50% in size.
Potency means the concentration at half of the fitted maximal effect; tags describe the fitted curve by direction and shape.
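Wherever activity change, negative = inhibition is given: 0% = wells with enzyme and -100% = buffer wells without enzyme.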

Compound | Potency | activity change, negative = inhibition
COC1=CC(=O)C[C@@H](C)[C@]12Oc1c(Cl)c(OC)cc(OC)c1C2=O | inconclusive: 28.2 µM [inhibitor, partial curve] | 
CC1(C)C2CCC(C2)C1(C)NC(=O)CNCC1CCCCC1 (configuration not stated) | inconclusive: 39.8 µM [inhibitor, single point] | 
Cc1ccc(NC(=O)/C(C#N)=C(\N)C(Cl)(Cl)Cl)nc1 | inconclusive: 31.6 µM [inhibitor, partial curve] | 
COCc1cc(=O)n2[nH]c(C)cc2n1 | inconclusive: 35.5 µM [inhibitor, partial curve] | 
COc1ccccc1/C=C/CN1CCOCC1 | inconclusive: 25.1 µM [inhibitor, single point] | 
CCOc1ccccc1-c1cc(-c2n[nH]c(=S)n2CC)c2ccccc2n1 | inconclusive: 28.2 µM [inhibitor, partial curve] | 
COc1cccc(-c2nn[nH]n2)c1O | inconclusive: 31.6 µM [inhibitor, single point] | 
Cc1ccc2nc(-c3ccc(SCC(=O)Nc4cc(C)on4)nc3)[nH]c2c1 | inconclusive: 31.6 µM [inhibitor, partial curve] | 
O=C(Cn1cnc2c(nnn2Cc2ccc(Cl)cc2)c1=O)NCc1ccco1 |  | inactive: -0.314%
COc1ccc(/C=N/NC(=O)c2nn(-c3ccc(Cl)cc3)c(=O)c3c(N)scc23)cc1 | inconclusive: 2.82 µM [inhibitor, single point] | 
CCn1cc(C2C3=C(CC(C)(C)CC3=O)N(c3ccccc3)C3=C2C(=O)CC(C)(C)C3)c(C)n1 | inconclusive: 22.4 µM [inhibitor, partial curve] | 
N#Cc1ccc(NC(=O)CCc2ccc(S(=O)(=O)N3CCOCC3)cc2)cc1 |  | inactive: -1.24%
COc1cc2cc(CN(Cc3cccs3)C(=S)Nc3cccc(C)c3)c(=O)[nH]c2cc1OC | inconclusive: 28.2 µM [inhibitor, partial curve] | 
CN1C(=O)/C(=C/c2ccccc2OCc2ccc(C(=O)O)cc2)NC1=S | inconclusive: 2 µM [inhibitor, full curve, poor fit] | 
COCC(=O)n1nc(-c2ccccc2)nc1NCc1ccc(N(C)C)cc1 |  | inactive: -2.23%
CCOC(=O)C1CCCCN1Cc1cccc(OC)c1OC (configuration not stated) | inconclusive: 39.8 µM [inhibitor, single point] | 
Cc1ccc(CSC2=Nc3ccccc3C3=NC(=O)CN23)cc1 | inconclusive: 35.5 µM [inhibitor, single point] | 
CC(C)(C)c1cc(/C=C(\C#N)C(N)=S)cc(C(C)(C)C)c1O | inconclusive: 39.8 µM [inhibitor, single point] | 
Cc1cc(-c2ccccc2)nc2cc(C(N)=O)nn12 | inconclusive: 25.1 µM [inhibitor, partial curve] | 
COc1ccccc1N=c1oc2cc(O)ccc2cc1C(N)=O | inconclusive: 31.6 µM [inhibitor, partial curve] | 
CCOc1ccc(NC(=O)c2ccc(NC(=O)c3cn4c5c(c(N6CCN(C)CC6)c(F)cc5c3=O)OCC4C)cc2)cc1 (configuration not stated) | inconclusive: 31.6 µM [inhibitor, partial curve] | 

Compound | Potency | activity change, negative = inhibition
Cc1nn2c(NC(C)C)c3c(nc2c1-c1ccccc1)CCC3 | inconclusive: 35.5 µM [inhibitor, single point] | 
O=C(COc1ccc(Cl)cc1Cl)NC(=S)Nc1ccccc1C(=O)O | inconclusive: 25.1 µM [inhibitor, partial curve] | 
COC(=O)[C@@]1(Cc2ccc(OC)cc2)[C@H]2c3cc(C(=O)N4CCCC4)n(CCc4c[nH]c5cc(F)ccc45)c3C[C@H]2CN1C(=O)c1ccccc1 | inconclusive: 39.8 µM [inhibitor, single point] | 
COC(=O)c1c(C(=O)OC)c2cccc3cc(-c4ccccc4)c4ccc1c4n32 | active: 2.51 µM | 
COc1cnc(N(C)C)nc1Sc1ccc(Cl)cc1 | inconclusive: 35.5 µM [inhibitor, partial curve] | 
CC(=O)N1C(=O)/C(=C2\SC(=S)N(NS(=O)(=O)c3ccc(C)cc3)C2=O)c2ccccc21 | inconclusive: 35.5 µM [inhibitor, single point] | 
O=C(C1CCN(S(=O)(=O)N2CCC3(CC2)OCCO3)CC1)N1CCOCC1 |  | inactive: -1.54%
COc1ccc(-c2csc(NC(=O)c3ccc(S(C)(=O)=O)cc3)n2)cc1 | inconclusive: 39.8 µM [inhibitor, single point] | 
COC(=O)N/N=C/c1cc(C)n(-c2ccc(Br)cc2)c1C | active: 25.1 µM | 
CSc1nc(N(C)NC(=O)c2ccc(Cl)cc2)c2ccccc2n1 |  | inactive: 8.31%
COc1c2c(cc3occ(-c4ccc5c(c4)OCO5)c(=O)c13)OC(C)(C)C=C2 | inconclusive: 35.5 µM [inhibitor, single point] | 
Cc1cccc2nc(CSc3nc4ccc([N+](=O)[O-])cc4[nH]3)c(Br)n12 |  | inactive: -4.84%
COc1ccccc1C1C(C#N)=C(N)Oc2c1oc(CO)cc2=O (configuration not stated) | inconclusive: 39.8 µM [inhibitor, single point] | 
Cc1cc(C)n2ncc(C(=O)O)c2n1 | inconclusive: 31.6 µM [inhibitor, partial curve] | 
COc1ccccc1NC(=O)c1cc(Cl)ccc1NC(=O)c1ccco1 | inconclusive: 35.5 µM [inhibitor, single point] | 
COc1ccc(C(=O)Nn2c(SCC(=O)NCc3ccccc3)nc3ccccc3c2=O)cc1 | inconclusive: 22.4 µM [inhibitor, single point] | 
N/C(CC(=O)Nc1cc(C(F)(F)F)ccc1Cl)=N\O |  | inactive: -3.56%
Cc1ccnc(N2CCC(C(=O)NNC(=O)c3ccccc3)CC2)n1 | inconclusive: 31.6 µM [inhibitor, single point] | 
Cc1ccc(/C=C/C(=O)N2CC(=O)Nc3ccccc32)o1 | inconclusive: 39.8 µM [inhibitor, single point] | 
O=C(CSc1nnc2c(n1)[nH]c1ccccc12)Nc1ccc(S(=O)(=O)Nc2ncccn2)cc1 |  | inactive: -0.95%
CCS(=O)(=O)c1ccc(-c2csc(-c3ccccc3Cl)n2)c(Cl)c1Cl | inconclusive: 25.1 µM [inhibitor, single point] | 
